Measured values: PubChem BioAssay AID1460 (National Center for Advancing Translational Sciences (NCATS), 2008)
The campaign covered roughly 270,000 compounds. About 5,800 (2.1%) were called active. Inconclusive means that the source gave no clear call. Such entries were picked first, then a sample of the others. The call rests on the fitted dose curve; in most records, active means well fitted inhibition curve with a large enough effect; inconclusive means small, poorly fitted or top-dose-only effect; inactive means flat fitted curve, though single readings scatter. Where the call is inconclusive, the potency comes from a doubtful curve fit.

Target: Microtubule-associated protein tau (Homo sapiens) (UniProt P10636)
Experiment: qHTS for Inhibitors of Tau Fibril Formation, Thioflavin T Binding; further: nearly all actives have a fitted effect of over 55% in size
Conditions: recombinant tau K18 P301L (four-repeat tau fragment), heparin-induced fibrillization, ThT fluorescence; series mostly up to 57.4 µM
Procedure, shortened: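 K18 P301L tau (15 uM + 0.24 uM Alexa 594-tagged), heparin 20 uM, NaOAc pH 7, 6 h 37 C; ThT 30 uM, 1 h RT, ex 450/em 510 nm.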
Potency means the concentration at half of the fitted maximal effect; tags describe the fitted curve by direction and shape.

Chain of UniProt P10636 (P10636 whole entry, looked up): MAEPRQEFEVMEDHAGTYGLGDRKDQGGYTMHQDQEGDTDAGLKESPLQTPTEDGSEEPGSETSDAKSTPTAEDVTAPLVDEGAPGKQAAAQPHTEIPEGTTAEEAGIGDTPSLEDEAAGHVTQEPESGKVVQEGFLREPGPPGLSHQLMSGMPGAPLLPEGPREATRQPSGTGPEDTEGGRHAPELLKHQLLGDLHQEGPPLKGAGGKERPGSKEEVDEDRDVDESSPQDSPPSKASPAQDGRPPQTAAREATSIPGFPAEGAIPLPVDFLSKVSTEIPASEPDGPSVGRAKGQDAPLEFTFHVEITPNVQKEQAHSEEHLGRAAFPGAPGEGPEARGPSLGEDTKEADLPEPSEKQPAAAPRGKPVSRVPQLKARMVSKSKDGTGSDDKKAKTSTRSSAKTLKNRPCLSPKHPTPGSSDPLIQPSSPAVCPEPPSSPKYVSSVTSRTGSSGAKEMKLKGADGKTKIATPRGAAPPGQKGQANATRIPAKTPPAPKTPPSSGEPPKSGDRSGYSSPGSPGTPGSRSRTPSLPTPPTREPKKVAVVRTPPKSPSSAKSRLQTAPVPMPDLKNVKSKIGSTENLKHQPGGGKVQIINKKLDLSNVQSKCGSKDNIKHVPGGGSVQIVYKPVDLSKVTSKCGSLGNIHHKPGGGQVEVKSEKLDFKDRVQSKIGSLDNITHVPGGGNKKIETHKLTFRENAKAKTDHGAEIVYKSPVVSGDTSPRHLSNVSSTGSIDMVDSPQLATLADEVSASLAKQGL

Row | Compound | Potency
1 | C[C@@H]1NC(=O)c2cc([N+](=O)[O-])cc(I)c2NCCCC[C@@H](C(N)=O)NC(=O)[C@H](CC(N)=O)NC1=O | inconclusive: 14.1 µM [inhibitor, partial curve]
2 | O=C(CCC(=O)Nc1ccccc1Cl)N/N=C/c1ccccc1 | inactive
3 | COC(=O)c1cn(N(C)c2ncc(C(F)(F)F)cc2Cl)c(=O)c2ccccc12 | inconclusive: 22.4 µM [inhibitor, partial curve]
4 | CC1=NN(c2cccc([N+](=O)[O-])c2)C(=O)C1 | inconclusive: 3.55 µM [inhibitor, full curve]
5 | Cc1cccc(OCC(=O)Nc2ccccc2N2CCCCC2)c1 | inconclusive: 10 µM [inhibitor, partial curve]
6 | COc1ccccc1Nc1nc(Cl)nc(NC(C)(C)C)n1 | inconclusive: 22.4 µM [inhibitor, single point]
7 | NC(=O)C(c1ccc(Cl)cc1)c1ccc(Sc2ccc(Cl)cc2)nn1 (stereo not drawn) | inconclusive: 39.8 µM [inhibitor, partial curve]
8 | C/C(=N\OC(=O)c1ccc(Cl)cc1)c1sc(-c2ccccc2)nc1C | inconclusive: 1.58 µM [inhibitor, full curve]
9 | COc1ccc(/C=C2\N=C(c3ccccc3)NNC2=O)cc1 | inconclusive: 44.7 µM [inhibitor, single point]
10 | O=C(CN(C(=O)CNC(=O)c1ccco1)c1ccc2c(c1)OCCO2)NC1CCCC1 | inconclusive: 5.01 µM [activator, partial curve]
11 | CCn1cc(C(=O)O)c(=O)c2cc(F)c(N3CCN(C(=S)NC(=O)c4ccc(F)c(F)c4)CC3)cc21 | inactive
12 | O=C1c2cccc3c([N+](=O)[O-])ccc(c23)C(=O)N1CC1CCCO1 (stereo not drawn) | inconclusive: 11.2 µM [inhibitor, partial curve]
13 | CCOc1ccc(NC(=S)N(CCc2c(C)[nH]c3ccccc23)Cc2ccco2)cc1 | inconclusive: 8.91 µM [inhibitor, partial curve]
14 | O=[N+]([O-])c1ccc2[nH]c3c(c2c1)CCCC3O (stereo not drawn) | inconclusive: 14.1 µM [inhibitor, partial curve, poor fit]
15 | COc1ccc(CNC(=O)c2cnn(-c3ccc(C)cc3)c2-n2cccc2)cc1OC | inactive
16 | Cc1nc2ccc(Cl)cn2c1C(=O)NN | inactive
17 | CS(=O)(=O)c1ccc2c(c1)SC1=NC(=O)/C(=C/c3ccco3)C(=N)N12 | active: 7.08 µM
18 | CCOc1ccc(N2C(=O)CC(NCCc3c[nH]c4ccccc34)C2=O)cc1 (stereo not drawn) | inconclusive: 8.91 µM [inhibitor, partial curve]
19 | COc1ccccc1C(=O)Nc1ccc(OCc2cc(=O)n3ccc(C)cc3n2)cc1 | inconclusive: 3.55 µM [inhibitor, full curve]
20 | COc1ccc(-n2ncc3c(N4CCCCC4)ncnc32)cc1 | inconclusive: 2.24 µM [inhibitor, partial curve]
21 | CCN1C(=O)/C(=C\c2cn(-c3ccccc3)nc2-c2cccnc2)SC1=S | inactive
22 | COc1ccc(NCC(=O)N/N=C2\CCc3ccccc32)cc1 | inconclusive: 14.1 µM [inhibitor, partial curve]

Row | Compound | Potency
23 | O=C(O)c1ccc(Cn2c(SCc3cc(=O)n4cc(Br)ccc4n3)nc3ccsc3c2=O)cc1 | inactive
24 | Cc1cc2cc(CCNC(=O)c3cccs3)c(=O)[nH]c2cc1C | inconclusive: 3.98 µM [inhibitor, full curve]
25 | CCc1nnc(NS(=O)(=O)c2ccc(Nc3ccc4nonc4c3[N+](=O)[O-])cc2)s1 | inconclusive: 14.1 µM [inhibitor, single point]
26 | O=C(Nc1cccc(Cl)c1)Nc1csc([N+](=O)[O-])c1 | active: 15.8 µM
27 | CC1CCCCN1C(=O)c1ccc(COc2ccc([N+](=O)[O-])cc2)o1 (stereo not drawn) | inconclusive: 25.1 µM [inhibitor, partial curve]
28 | O=C(CCCN1C(=O)c2cccc3cccc(c23)C1=O)N1CCN(c2ccccc2)CC1 | inconclusive: 1.78 µM [inhibitor, full curve]
29 | O=C1Nc2ccccc2/C1=N\N=C\C1=C(N2CCOCC2)C(=C\c2ccccc2)/CC1 | active: 7.08 µM
30 | C=C(C)C1CC=C(C)/C(=N/NC(=O)COc2ccc(C)cc2)C1 (stereo not drawn) | inactive
31 | CCOc1cc(C)cc2oc(=O)cc(-c3ccccc3)c12 | inconclusive: 28.2 µM [inhibitor, single point]
32 | O=C(Nc1ccc2c(c1)OCO2)C1CC(=O)N(c2ccc3c(c2)OCCO3)C1 (stereo not drawn) | inactive
33 | O=S(=O)(Cc1ccccc1)N=Nc1c(O)[nH]c2ccc(Br)cc12 | inconclusive: 20 µM [inhibitor, partial curve]
34 | COc1ccc2c(c1)c1c(c(=O)n(-c3ccccc3C)c(=O)n1CC(=O)N1CCCC1)n2C | inactive
35 | CCc1nnc(NC(=O)CSc2nnc(CSc3nc(C)cc(C)n3)o2)s1 | inconclusive: 25.1 µM [inhibitor, single point]
36 | CN1CCN(c2nc3ccccc3nc2C(C#N)C(=O)OC2CCCCC2)CC1 (stereo not drawn) | inconclusive: 31.6 µM [inhibitor, partial curve]
37 | O=C(Nc1ccc(CN2CCOCC2)cc1)c1ccc(-c2ccc(Br)cc2)o1 | inactive
38 | Cc1ccc(S(=O)(=O)Oc2ccc(/C=N/NC(=O)c3nn(C)cc3[N+](=O)[O-])cc2)cc1 | inconclusive: 35.5 µM [inhibitor, single point]
39 | COc1ccc(NC(=S)Nc2ccccn2)c(OC)c1 | inconclusive: 12.6 µM [inhibitor, partial curve]
40 | Cc1cccc(C(=O)Nc2ccc3oc(-c4ccncc4)nc3c2)c1 | inconclusive: 1 µM [inhibitor, full curve]
41 | CN(C)c1ccc(/C=N/NC(=O)c2cccc(N3CCCC3=O)c2)cc1 | inconclusive: 3.98 µM [inhibitor, partial curve]
42 | CCCCCn1cc2c(c1-c1ccc(Cl)cc1)c(=O)n(C)c(=O)n2C | inconclusive: 10 µM [inhibitor, partial curve, poor fit]
43 | O=c1[nH]c(Cc2ccccn2)nc2scc(-c3ccc(Cl)cc3)c12 | inconclusive: 28.2 µM [inhibitor, partial curve]
